Hit rate of the full screen: of about 310,000 compounds, about 2,200 (0.71%) showed an effect of 50% or more. Effects have a minus sign here. Some of the results follow.
These compounds were tested against human ether-à-go-go-related gene (hERG) potassium channel (human, UniProt Q12809) (assay: primary screen, population patch clamp on CHO cells stably expressing hERG).
Chain of human ether-à-go-go-related gene (hERG) potassium channel (Q12809 whole entry, looked up): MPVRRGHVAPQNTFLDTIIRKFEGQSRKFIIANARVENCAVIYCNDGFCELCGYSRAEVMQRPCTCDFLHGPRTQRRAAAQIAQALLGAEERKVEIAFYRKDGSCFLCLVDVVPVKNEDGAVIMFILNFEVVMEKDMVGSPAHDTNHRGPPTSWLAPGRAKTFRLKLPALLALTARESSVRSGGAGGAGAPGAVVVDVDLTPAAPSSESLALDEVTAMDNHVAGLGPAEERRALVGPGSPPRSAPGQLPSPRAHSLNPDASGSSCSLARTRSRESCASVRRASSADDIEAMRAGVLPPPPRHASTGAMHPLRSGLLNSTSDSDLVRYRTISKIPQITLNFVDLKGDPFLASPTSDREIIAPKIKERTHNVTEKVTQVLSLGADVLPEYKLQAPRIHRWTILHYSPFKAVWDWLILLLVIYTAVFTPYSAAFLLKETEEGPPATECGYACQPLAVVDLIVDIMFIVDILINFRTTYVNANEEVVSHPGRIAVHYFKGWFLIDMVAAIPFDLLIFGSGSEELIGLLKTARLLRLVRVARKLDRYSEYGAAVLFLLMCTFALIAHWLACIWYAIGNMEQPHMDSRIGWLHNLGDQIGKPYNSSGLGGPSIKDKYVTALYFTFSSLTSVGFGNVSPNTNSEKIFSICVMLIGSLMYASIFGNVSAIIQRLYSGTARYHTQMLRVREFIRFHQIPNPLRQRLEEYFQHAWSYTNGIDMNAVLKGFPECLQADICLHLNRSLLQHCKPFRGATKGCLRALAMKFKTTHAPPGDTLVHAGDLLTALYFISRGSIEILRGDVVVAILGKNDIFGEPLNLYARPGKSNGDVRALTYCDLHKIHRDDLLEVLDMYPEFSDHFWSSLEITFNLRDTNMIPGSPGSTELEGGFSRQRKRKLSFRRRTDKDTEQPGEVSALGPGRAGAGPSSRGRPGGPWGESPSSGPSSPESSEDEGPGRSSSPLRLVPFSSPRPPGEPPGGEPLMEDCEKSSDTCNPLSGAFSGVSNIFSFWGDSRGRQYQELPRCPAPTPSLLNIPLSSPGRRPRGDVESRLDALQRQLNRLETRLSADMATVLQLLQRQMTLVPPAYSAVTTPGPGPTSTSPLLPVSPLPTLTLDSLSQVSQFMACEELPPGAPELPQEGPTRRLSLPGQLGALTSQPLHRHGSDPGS

SMILES | hERG current change (%, negative = inhibition) at 1uM
COc1ccc(Cn2c(=O)[nH]c3cc(C(=O)NC4CCN(Cc5ccccc5)CC4)ccc32)cc1 | 13.4%
CCOc1ccc(NC(=S)N2CCC(NC(=O)c3ccccc3)CC2)cc1 | -3.48%
CC1(C)CC(NC(=O)c2ccccc2F)CC(C)(C)N1 | 6.14%
CCN1C(=NCCOC)N[C@@H](c2cccs2)C(C(=O)OC)=C1C | -0.789%
CCOC(=O)/C=C1/N(C)c2ccccc2C1(C)C | 3.52%
O=[N+]([O-])c1cc(/C=N/O)ccc1N1CCCC1 | 12.9%
O=C(Nc1nc(-c2ccco2)c(-c2ccco2)s1)C1CCC1 | 2.76%
COc1cc(C(=S)N2CCOCC2)cc(OC)c1OS(=O)(=O)c1ccc(Cl)cc1 | 13.4%
COc1ccc(N2C(=O)c3ccccc3NC23CCCC3)cc1 | 12.7%
CC1=C(C(N)=O)C(c2ccc(F)cc2)n2nc(CCCO)nc2N1 (stereo not shown) | 17.8%
COC(=O)c1ccccc1NC(=S)N(Cc1ccc2c(c1)OCO2)Cc1cc2ccc(C)cc2[nH]c1=O | 6.91%
O=C(Oc1cc(-c2ccccc2)no1)c1cccc(C(F)(F)F)c1 | 15%
O=C1c2ccccc2-c2ncnc3c(N4CCOCC4)cc(N4CCOCC4)c1c23 | -13.3%
Cc1cccn2c(=O)c3cc(C(=O)N4COCC4(C)C)sc3nc12 | -0.626%
CN(CC(=O)Nc1ccc(F)cc1)C(=O)c1cccc(S(=O)(=O)N2CCN(c3ccccc3)CC2)c1 | 6.57%
COc1ccc(C(=O)NC2CCSC2=O)cc1 (stereo not shown) | 8.09%
Cc1cc(F)ccc1S(=O)(=O)Nc1ccccc1C(=O)N1CCCC1 | 7.17%
Cc1ccc(Nc2nnc(SCC(=O)Nc3cc(C(=O)O)ccc3C)s2)c(C)c1 | 10.4%
COc1ncnc(-c2ccccc2)c1-c1ccccc1 | 15.9%
O=C1C2C3C=CC(C4CC34)C2C(=O)N1/N=C/c1c[nH]c2ccccc12 (stereo not shown) | 12.6%
O=C(CN1CC=C(c2ccccc2)CC1)Nc1c(Cl)cccc1Cl | 4.3%
O=C(NCC1CCCO1)C(=O)N/N=C/c1cccc(Cl)c1 (stereo not shown) | 17.1%

SMILES | hERG current change (%, negative = inhibition) at 1uM
N#Cc1ccc(Oc2cccc3cccnc23)c([N+](=O)[O-])c1 | 3.42%
C=CCN1C(=O)C(Cc2ccc(Br)cc2)S/C1=N\N=C\c1ccco1 (stereo not shown) | 4.06%
Cc1ccccc1-c1nc(S(=O)(=O)c2ccc(Br)cc2)c(NCc2cccnc2)o1 | 2.97%
Cc1ccc(OCC(=O)NCCN2CCN(C(=O)COc3ccc(C)cc3)CC2)cc1 | -21.2%
O=[N+]([O-])c1ccc(F)c(N=Cc2ccc(Br)s2)c1 | 7.42%
Cc1cc(C(=O)N2CCC(CO)(Cc3cccc(C(F)(F)F)c3)CC2)n[nH]1 | 1.67%
CCN1CCN(CCCN(Cc2ccco2)C(=S)Nc2ccccc2Cl)CC1 | -0.264%
CC(=O)OC[C@H]1O[C@@H](n2ncc(=O)[nH]c2=O)[C@H](OC(C)=O)[C@@H]1OC(C)=O | 19.3%
CN(CC(=O)Nc1ccccc1Cl)C(=O)CN1C(=O)NC(c2ccccc2)(c2ccccc2)C1=O | -45.8%
CCN(CC)CCNC(=O)c1ccccc1N | 0.537%
O=C(NCc1ccncc1)c1cc(F)c(F)cc1Cl | 15%
O=C(CSc1nc2c(c(=O)n1-c1ccc(Br)cc1)SCC2)NCc1ccco1 | 6.54%
COc1ccc(C)cc1NC(=O)C(Sc1nnc(-c2cccs2)o1)c1ccccc1 (stereo not shown) | 0.023%
O=c1ccc2cc3c(-c4ccccc4)coc3cc2o1 | 13.6%
CC/C(=N\N1CCCCCC1)c1c(O)n(-c2ccc(C)cc2)c(=O)[nH]c1=O | 11.4%
COc1cc(C2C(C#N)=C(N)OC3=C2C(=O)CCC3)cc2c1OCO2 (stereo not shown) | 9.06%
O=[N+]([O-])c1cc(/C=N\O)ccc1Oc1ccc(F)cc1 | -46.3%
COc1ccc(-c2csc(NC(=O)C3CSC4(C)CCC(=O)N34)n2)c(OC)c1 (stereo not shown) | 12.9%
Cc1cccc(-n2nc3c(c2NC(=O)c2ccc4c(c2)OCO4)CS(=O)(=O)C3)c1C | 21.2%
O=C(COc1ccc(NS(=O)(=O)c2ccc(F)cc2)cc1)N1CCOCC1 | 8.73%
Cc1cc(C)n(CC(C)C(=O)O)n1 (stereo not shown) | 12.1%
Cc1nc2nc(CCNS(=O)(=O)c3ccc(Cl)cc3)cn2nc1C | 11%

SMILES | hERG current change (%, negative = inhibition) at 1uM
CCCCc1cc(=O)oc2c(C)c(OCc3nn[nH]n3)ccc12 | 7.04%
Cc1ccc(S(=O)(=O)Nc2ccc3c(c2)OCCO3)cc1C | 15%
CN(CC(=O)NNC(=O)CNC(=O)c1ccccc1F)S(=O)(=O)c1ccc(Cl)cc1 | 6.42%
Cc1cc(=O)n2nc(N3CCCC(C(=O)NCc4ccccc4Cl)C3)sc2n1 (stereo not shown) | 23.5%
Cc1ccc(N2C(=O)CC(Sc3nc(C)cc(C)n3)C2=O)cc1 (stereo not shown) | 11%
CCOc1cc(Cl)c(CNCCCN2CCOCC2)cc1OC | 16.4%
COc1ccc(S(=O)(=O)Nc2ccccn2)cc1OC | 11.7%
O=C(CNC1CCCCC1)Nc1ccc(Cl)cc1 | 5.9%
COc1ccc(-n2c(Cc3cccn3C)nnc2SCC(=O)NC2CCCCC2)cc1 | 6.77%
COC(=O)c1ccc(CNC(=O)C2CCC(=O)N(Cc3ccccn3)C2)cc1 (stereo not shown) | 15.2%
OCCC1CN(Cc2cnc(-c3ccc(Cl)cc3)nc2)CCN1C1CCCC1 (stereo not shown) | -62%
Cc1cccc(NC(=O)C2CCN(c3ncnc4c3nc3n4CCCCC3)CC2)n1 | -13.2%
Cc1ccccc1C(=O)Nc1nc2n(n1)C(c1ccccc1)CC(=O)N2 (stereo not shown) | -8.66%
Cc1ccc(C)c(N2CCN(CC3CCCCC3)CC2)c1 | 13.1%
CCOc1ccc(CCNC(=O)C2CC(=O)N(Cc3ccc(C)cc3)C2)cc1OCC (stereo not shown) | 18.5%
O=C(NCc1ccco1)C(=O)NCC(c1ccco1)N1CCOCC1 (stereo not shown) | 13.9%
O=C(Nc1ccc(N2CCOCC2)c(Cl)c1)c1cc(F)c(F)cc1Cl | 5.44%
O=C(O)CC1(CC(=O)Nc2ccccc2N2CCOCC2)CCCC1 | 3.72%
CCOc1ccccc1NC(=O)CSc1nnc(-c2ccncc2)o1 | 8.26%
COc1ccc(C)cc1N(C(=O)Cn1nnc(-c2ccc(C)o2)n1)C(C(=O)NC1CCCC1)c1ccncc1 (stereo not shown) | 11.8%
Cc1ccccc1CNC(=O)CN1C(=O)c2ccccc2S1(=O)=O | 16.7%
N#Cc1ccc(C(=O)Nc2cc(-c3ccccc3)nn2-c2ccccc2)cc1 | 0.56%

SMILES | hERG current change (%, negative = inhibition) at 1uM
CCN(CC(=O)Nc1ccc2c(c1)OCCO2)S(=O)(=O)c1cccs1 | 2.41%
CC(=O)NC1(C(F)(F)F)C(=O)N(Cc2ccccc2)C2=C1C(=O)CC(C)(C)C2 (stereo not shown) | 22.7%
Cc1cc(C)n2nc(SCn3nnc4ccccc4c3=O)nc2n1 | 11.3%
CCC(=O)Nc1nnc(SCC(=O)Nc2ccc3c(c2)OCO3)s1 | 10.9%
CC(C)OP(=O)(OC(C)C)C(Nc1ccccc1)c1cccnc1 (stereo not shown) | 12.6%
O=C(CN1CCCCCC1)Nc1ccc(Br)cn1 | 3.88%
CCOP(=O)(C#Cc1ccccc1)C(O)c1ccc(Br)cc1 (stereo not shown) | 10.4%
COc1ccc(/C=C2/N=C3CCCCCN3C2=O)cc1 | 10.5%
CC1CCCCN1CCCNc1ccc(C(CC(N)=O)NC(=O)Cc2cccc3ccccc23)cc1[N+](=O)[O-] (stereo not shown) | -14.8%
O=C(/C=C/c1ccc(Br)o1)Nc1nccs1 | 2.7%
CC(=O)CCC(=O)N1CCC(n2nccc2NC(=O)c2ccccc2C)CC1 | 15.9%
COc1ccc(C[C@H]2CN3C(=NC[C@@H]3Cc3ccccc3)N2CCNC(=O)CCC2CCCCC2)cc1 | -60.4%
COc1ccc([N+](=O)[O-])cc1N(CC(=O)NCc1ccco1)S(C)(=O)=O | 12.8%
Cc1cc(C)c(CNC(=O)c2cc(C3CC3)nc3c2cnn3C(C)C)c(=O)[nH]1 | 6.26%
CN(Cc1ccccc1)C(=O)COC(=O)c1ccc(=O)n(Cc2ccccc2)n1 | 3.74%
COc1ccc(C(CCNCc2ccc(OC(C)C)cc2)C(C)C)cc1 (stereo not shown) | 2.88%
O=C(/C=C\c1ccco1)Nc1cc([N+](=O)[O-])ccc1F | 2.32%
COc1ccccc1OC1OC2COC(c3ccco3)OC2C(O)C1NC(C)=O (stereo not shown) | 2.9%
O=C(Nc1ccc(C2CCCCC2)cc1)C1CCCN(c2ncccn2)C1 (stereo not shown) | -11.5%
C=C1CC2C=C(NC(C)=O)CC(C1)C2 (stereo not shown) | 1.27%
Cc1cccc(NC(=O)[C@H](Cc2ccccc2)NC(=O)OCc2ccccc2)c1 | 13.7%
Cc1cccc(N(CC(=O)NCc2ccc(F)cc2)C(=O)c2ccco2)c1 | 10.6%
